The results in this text go back to PubChem BioAssay AID1508642 (National Center for Advancing Translational Sciences (NCATS), 2021).

Out of some 43,000 compounds screened, about 200 (0.47%) were called active. Inconclusive results (about 12%) are left out. Calls follow the shape of the dose curve; as a rule, active = well fitted cell-killing curve with a large enough effect; inconclusive = small, poorly fitted or top-dose-only effect, or effect the other way; inactive = flat fitted curve, though single readings scatter. The list shows a part of the results.
% is scaled to controls: 0 for no effect and ±100 for the full control effect.

The nature of the test: Cell viability qHTS assay in S16 Pmp22-F2sN cells. Also: nearly all actives have a fitted effect of over 65% in size. Conditions: S16 Pmp22-F2sN Schwann cells viability, CellTiter-Glo, 24 h; series mostly up to 57.5 µM; activity change, negative = cytotoxicity: at the top concentration. Put shortly: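 Used to flag compounds lowering reporter output through toxicity, this quantitative HTS measures ATP-based CellTiter-Glo luminescence in S16 Pmp22-F2sN Schwann cells after 24 h compound exposure at 37C.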
A general note: qHTS replaces the single test concentration by a dilution series.
Regarding `O=C(CCCCCn1c(=O)c2sccc2n(CC(=O)Nc2ccccc2F)c1=O)NCc1ccc2c(c1)OCO2`, the “activity change, negative = cytotoxicity” value is inactive: -0.565%. On to `COc1cc(CN(C(=O)COc2ccccc2)c2ccccn2)cc(OC)c1OC`, for which the “activity change, negative = cytotoxicity” value is inactive: 1.34%.

As for `Cc1ccc(C2CC(=O)Nc3c2c(C)nn3-c2nc(C)cc(C)n2)c(C)c1` (configuration not stated), the “activity change, negative = cytotoxicity” value is inactive: 19.3%. The value for `Cn1c(=O)oc2cc(S(=O)(=O)CCC(=O)NCc3ccc(Cl)cc3)ccc21` was inactive: 0.744%. Regarding `Cc1ccsc1CN(Cc1ccco1)c1cnc(S(C)(=O)=O)nc1C(=O)Nc1ccc(Cl)cc1`, the “activity change, negative = cytotoxicity” value is inactive: -12%. On to `Cc1ccccc1C(=O)N1CCC(c2nc(-c3ccc(S(=O)(=O)N4CCCC4)cc3)no2)CC1`, for which the “activity change, negative = cytotoxicity” value was inactive: 6.32%. As for `Cc1cccc(C(=O)Nc2ccc(OCc3cc(=O)n4ccc(C)cc4n3)cc2)c1`, the “activity change, negative = cytotoxicity” value was inactive: 3.99%. With `Cc1ccc(NS(=O)(=O)c2ccc(-n3cccn3)cc2)c(Br)c1`, the “activity change, negative = cytotoxicity” value was inactive: 5.21%. For `COc1ccc(Nc2nc3ccccc3n3c(N)nnc23)cc1` the value was inactive: -18.1%; for `CC1CCN(C(=O)CN2CC(C)Sc3ccccc32)CC1` (configuration not stated), inactive: -0.621%. `Cc1ccc(NC(=O)N2CC=C(c3c[nH]c4ccccc34)CC2)cc1Cl`: the “activity change, negative = cytotoxicity” value was inactive: -12.6%.

On to `CCOCCn1ccc2c(OCC(=O)Nc3cc(C)cc(C)c3)cccc2c1=O`, for which the “activity change, negative = cytotoxicity” value is inactive: 4.48%. For the molecule `COc1ccc(-c2cn3nc(SCC(=O)Nc4cccc(C)c4C)ccc3n2)cc1`, the “activity change, negative = cytotoxicity” value was inactive: 3.49%.

As for `O=C1CN(C(=O)c2ccc(S(=O)(=O)N3CCCC3)cc2)C(c2ccc(F)cc2)c2cc(Br)ccc2N1` (configuration not stated), the “activity change, negative = cytotoxicity” value was inactive: -15.8%.

For `CCC1CN(S(=O)(=O)c2cc(-c3cc(C)no3)ccc2OC)c2cc(Cl)ccc2O1` (configuration not stated), the “activity change, negative = cytotoxicity” value is inactive: -15.7%. Turning to `Cc1ccc2c(c1)N(C(=O)N1CCC(C(=O)Nc3cccc(F)c3)CC1)CCO2`, the “activity change, negative = cytotoxicity” value is inactive: -16.2%. As to `O=S(=O)(NCCc1csc2nc(-c3ccc(Cl)cc3)nn12)c1cccs1`, the “activity change, negative = cytotoxicity” value is inactive: -18.4%. For the molecule `CC(C)CC(=O)NC1CC(=O)N(c2ccc3c(c2)OCCO3)C1` (configuration not stated), the “activity change, negative = cytotoxicity” value was inactive: 24.1%. The value for `CN(Cc1ccccc1)c1nc2c(S(=O)(=O)c3cccc(Cl)c3)nnn2c2ccsc12` was inactive: 0.891%; that for `CCCCNC(=O)CSc1nc2cc3c(cc2c(=O)n1CCCC(=O)NCc1ccc(OC)cc1)OCO3` was inactive: 0.534%; that for `O=C(COc1ccc(Cl)cc1)OCc1cc(=O)n2nc(C3CCCCC3)sc2n1` was inactive: -16.7%. As to `CCOC(=O)c1ccc2c(c1)N(Cc1cc(C)ccc1C)C(=O)c1ccccc1S2(=O)=O`, the “activity change, negative = cytotoxicity” value is inactive: -0.667%. For `Cc1cc(C)cc(NC(=O)[C@H]2O[C@@H]3OC(C)(C)O[C@@H]3[C@H]3OC(C)(C)O[C@H]32)c1` the value was inactive: 21.8%; for `COc1cc(Nc2nc3c(S(=O)(=O)c4ccccc4)nnn3c3ccc(Cl)cc23)cc(OC)c1`, inactive: -0.542%. The value for `O=c1c2oc3ccccc3c2n(Cc2ccccc2Cl)c(=O)n1Cc1ccc2c(c1)OCO2` was inactive: 22.1%; that for `CCc1ccccc1NC(=O)CN(c1cc(C(F)(F)F)ccc1Cl)S(=O)(=O)c1ccccc1` was inactive: 6.52%; that for `CCc1ccccc1NC(=O)Cn1c(=O)n(-c2ccc(C)cc2)c(=O)c2cc(OC)c(OC)cc21` was inactive: 1.51%. For the molecule `CCN(CCCNC(=O)Cn1ncc2c([nH]c3ccccc32)c1=O)c1cccc(C)c1`, the “activity change, negative = cytotoxicity” value is inactive: 3.35%. For `COC(=O)c1scc(-c2ccc(C)cc2)c1S(=O)(=O)N1CCN(c2cccc(Cl)c2)CC1` the value was inactive: 27.8%. Regarding `CCc1ccccc1Nc1sc(C(=O)c2ccccc2)c(N)c1S(=O)(=O)c1ccccc1`, the “activity change, negative = cytotoxicity” value was inactive: 7.79%.

For `Cc1c(C(=O)Nc2c(F)cccc2F)sc2ncn(Cc3ccccc3F)c(=O)c12`, the “activity change, negative = cytotoxicity” value was inactive: -28.3%. Turning to `CC(=O)N1CCc2c(sc3c2c(=O)n(-c2ccccc2C)c(=O)n3CC(=O)Nc2ccccc2)C1`, the “activity change, negative = cytotoxicity” value is inactive: 27.9%.

`Cn1c(=O)sc2cc(NS(=O)(=O)c3ccc(C(C)(C)C)cc3)ccc21`: the “activity change, negative = cytotoxicity” value was inactive: -1.09%.

Turning to `Cc1ccc(S(=O)(=O)c2nc(-c3cccs3)oc2N2CCC(C)CC2)cc1`, the “activity change, negative = cytotoxicity” value is inactive: -13.6%.

For the molecule `COc1ccc(Cl)cc1NC(=O)Cn1cc(S(=O)(=O)Cc2cccc(Cl)c2)c2ccccc21`, the “activity change, negative = cytotoxicity” value is inactive: -11.2%. For `CN1CCc2c(sc3c2C(=O)NC(c2ccc(OC(=O)c4ccc(Cl)cc4)cc2)N3)C1` (configuration not stated) the value was inactive: 20.1%; for `CC(=O)N1CCc2cc(Br)cc(S(=O)(=O)CCC(=O)NCCc3ccc(Cl)cc3)c21`, inactive: 10.2%.

Regarding `CCCCOc1ccc(C(=O)N(Cc2nc(-c3ccc(Cl)cc3)no2)C(C)C)cc1`, the “activity change, negative = cytotoxicity” value was inactive: 7.06%.

For the molecule `COc1ccc(CC(=O)NCCc2sc(-c3cccc(F)c3)nc2C)cc1`, the “activity change, negative = cytotoxicity” value was inactive: 0.701%. The value for `Cc1ccc(Cn2c(C)c(CNCc3ccc(OC(C)C)cc3)c(C(=O)O)c2C)cc1` was inactive: 2.23%. The value for `CCOc1ccc(CCNC(=O)c2ccc(CS(=O)Cc3ccc(Cl)cc3)o2)cc1` (configuration not stated) was inactive: -21.3%. On to `COc1ccc(N2CCN(C(=O)c3nn(-c4ccc(C)cc4)c(=O)n(C)c3=O)CC2)cc1`, for which the “activity change, negative = cytotoxicity” value was inactive: 6.55%. For `CCOC(=O)c1cc(-c2ccc(OC)cc2)nn1Cc1ccccc1` the value was inactive: 4.41%; for `Cc1ccc(CSc2nc3c(c(=O)[nH]2)C(c2cccc(F)c2F)CC(=O)N3)cc1` (configuration not stated), inactive: -2.47%. As for `Cc1ccc(OCC(=O)Nc2ccc3nc(SCC(=O)N(C)c4ccccc4)sc3c2)cc1`, the “activity change, negative = cytotoxicity” value is inactive: -4.95%. Take `COc1ccc(NC(=O)c2sc3nc[nH]c(=O)c3c2C)cc1OC`: the “activity change, negative = cytotoxicity” value was inactive: 1.57%. Regarding `COc1cccc(CNC(=O)CN(C)S(=O)(=O)c2ccc3c(c2)c(=O)n(C)c(=O)n3C)c1`, the “activity change, negative = cytotoxicity” value is inactive: 4.11%.
